The whole screen tested about 52,000 compounds, of which about 4,300 (8.3%) were called active. Cut-off read from the data, not from the text of the source: active = survival mostly below about 52% (no sharp cut-off); inactive = mostly above about 56%. Some of the results follow.
These molecules were tested on DeltatarO mutant (assay: S. aureus survival, RN4220 and DeltatarO strains – OD600, teichoic acid synthesis inhibitors, primary screen (AID 463173)). Conditions: S. aureus RN4220 wild type/DeltatarO growth, OD600, 18 h, stronger effect = lower value, screened at 18.75 µg/mL (by protocol).
For `COc1ccc(-c2nnn(CC(=O)N(CC(=O)NCc3ccccc3)c3ccc4c(c3)OCCO4)n2)cc1OC`, the survival was inactive: 69%.
For `COc1ccc(CNC(=O)CN2N=C(c3ccccc3)CCC2=O)c(OC)c1`, the survival was inactive: 94%.
With `CCn1c(=O)c(=O)n(CC)c2cc(N3CCCCC3)c(NC(=O)c3ccc(Cl)cc3)cc21` the survival was inactive: 123%.
In the case of `CCN(C(=O)c1cc2c(=O)oc3ccc(C)cc3c2s1)c1cc(OC)ccc1OC`, the survival is reported as inactive: 78%.
In the case of `CCOc1ccc2[nH]c(=O)c(CN(CCOC)C(=O)NC3CCCCC3)cc2c1`, the survival is reported as inactive: 100%.
For `CCN(CC)CCNC(=O)c1ccc2c(c1)NC(=O)C(CS(=O)(=O)Cc1cccc(Br)c1)N2` (centres undefined), the survival was inactive: 126%.
With `COc1ccc(-c2nc3cc(C(C)C)ccc3o2)cc1NC(=O)COc1ccc(C)cc1C` the survival was active: 37%.
With `O=C(Cn1c(=O)c2ccccc2n(CC(=O)Nc2ccc(F)cc2F)c1=O)NCCc1ccccc1` the survival was inactive: 81%.
`Cc1ccc(C)c(Nc2ncnc3onc(C)c23)c1` was tested, and the survival was inactive: 81%.
In the case of `COc1ccc(NC(=O)CCSc2nc(-c3ccco3)cc(C(F)(F)F)n2)cc1`, the survival is reported as inactive: 57%.
With `COc1ccc(NC(=O)CSc2ncccc2C(=O)O)cc1OC` the survival was inactive: 93%.
`Cc1nc(SCC(=O)Nc2c(C)nn(C)c2C)c2cnn(-c3ccccc3)c2n1` was tested, and the survival was inactive: 68%.
For `Cc1ccc(Cl)cc1NC(=O)CSc1ccc(C(=O)O)cn1`, the survival was inactive: 63%.
For `c1ccc(-c2nnc(CN3CCN(c4ccccn4)CC3)o2)cc1`, the survival was inactive: 79%.
`CCC1CN(C(=O)N2CCC(C(=O)NCCc3ccccc3C)CC2)c2ccccc2O1` (centres undefined) was tested, and the survival was inactive: 103%.
With `Cc1ccc(OCC(=O)OCc2cc(=O)n3nc(C4CCCCC4)sc3n2)cc1C` the survival was inactive: 88%.
`O=C(c1[nH]c2ccccc2c1Sc1ccc(Cl)cc1)N1CCCCC1` was tested, and the survival was active: 11%.
For `O=C1CC(c2ccccc2)Sc2nc(-c3ccc(F)cc3)nn21` (centres undefined), the survival was inactive: 81%.
`COc1ccc(C(=O)Nc2cc(C(C)C)c(O)c(S(=O)(=O)c3ccc(Cl)cc3)c2C)cc1` was tested, and the survival was inactive: 73%.
With `CCN(Cc1ccccc1)Cc1c(O)ccc2c(=O)c(-c3ccccc3)c(C(F)(F)F)oc12` the survival was inactive: 155%.
For `CCOc1ccccc1CNCc1c(C(=O)O)c(C)n(Cc2ccc(Cl)cc2)c1C`, the survival was inactive: 75%.
With `CCC1CCCCN1CCCNC(=O)c1ccc2c(c1)N(Cc1ccccc1)C(=O)c1ccccc1S2(=O)=O` (centres undefined) the survival was inactive: 156%.
In the case of `CCn1nc(C)c2c(-c3ccccc3)cc(=O)n(C(C)C(=O)NCc3cccc(OC)c3)c21` (centres undefined), the survival is reported as inactive: 83%.
For `CCOc1cccc(CC(=O)N2CCc3c([nH]c4ccccc34)C2c2ccccc2)c1OCC` (centres undefined), the survival was inactive: 76%.
In the case of `CCN(CC)c1ccc(CN(C(=O)Cc2coc3ccc(C)cc23)C2CCS(=O)(=O)C2)cc1` (centres undefined), the survival is reported as inactive: 82%.
With `CCc1ccc(OCCCn2c(-c3ccc(Cl)cc3)nc3ccccc3c2=O)cc1` the survival was active: 44%.
`CCCN1C(=O)CSC1=Nc1ccccc1` was tested, and the survival was inactive: 103%.
With `Cc1ccc(-c2nc3scc(CCNS(=O)(=O)c4ccc(F)c(C)c4)n3n2)cc1` the survival was inactive: 75%.
With `Cc1ccc(C(=O)Nc2cc3c(cc2N2CCCC2)n(C)c(=O)c(=O)n3C)cc1` the survival was inactive: 94%.
In the case of `COc1cc(NC(=O)COCc2cc(-c3ccc(F)cc3)on2)cc(OC)c1OC`, the survival is reported as inactive: 75%.
`CCCCn1nc(CC(=O)O)c2ccccc2c1=O` was tested, and the survival was inactive: 83%.
In the case of `Cc1nn(C(C)(C)C)c(OC(=O)C(C)(C)C)c1Sc1ccccc1`, the survival is reported as active: -10%.
In the case of `Cc1ccc(C(c2nnnn2C2CCCC2)N(Cc2cccnc2)CC2CCCO2)cc1` (centres undefined), the survival is reported as inactive: 74%.
With `COc1cccc(-n2c(SCC(=O)c3ccc(Cl)cc3)nc3c([nH]c4ccccc43)c2=O)c1` the survival was inactive: 63%.
With `CSc1ccc(CNC(=O)c2ccc(NC(=O)c3nsc4ccccc34)cc2)cc1` the survival was inactive: 91%.
For `COC(=O)Cn1c(=O)c2c(nc3n2CCN3c2ccc(F)cc2)n(C)c1=O`, the survival was inactive: 76%.
`CSc1nnc(C2CCCN2Cc2cccnc2)n1C` (centres undefined) was tested, and the survival was inactive: 80%.
With `Cc1ccccc1NC(=O)Cn1c(=O)n(CC2CCC(C(=O)NCCc3ccccc3)CC2)c(=O)c2ccccc21` (centres undefined) the survival was inactive: 73%.
`NC(=S)N/N=C/c1ccccc1OCC(=O)O` was tested, and the survival was inactive: 80%.
With `Cc1ccc(N2C(=O)[C@@H]3CSC(c4ccc(F)cc4)N3C2=O)cc1` (some centres undefined) the survival was inactive: 68%.
With `COc1ccc(Cl)cc1NC(=O)Cn1c(=O)n(CCC(=O)NCc2ccc3c(c2)OCO3)c(=O)c2ccccc21` the survival was inactive: 95%.
In the case of `CCOc1ccccc1C(=O)Nc1nc2c(s1)CC(C)CC2` (centres undefined), the survival is reported as inactive: 82%.
In the case of `Cc1ccc(CNS(=O)(=O)c2ccc(-c3cc(C(F)(F)F)on3)s2)cc1`, the survival is reported as inactive: 72%.
With `Nc1c(C(=O)Nc2ccccc2)nnn1Cc1ccc(F)cc1Cl` the survival was inactive: 99%.
For `O=C(Nc1ccc(OCc2cc(=O)n3c4c(sc3n2)CCCC4)cc1)c1ccccc1`, the survival was inactive: 82%.
For `CC1CCc2nc3ncn(Cc4ccccc4F)c(=O)c3cc2C1` (centres undefined), the survival was inactive: 66%.
`COc1ccc(N2CC(NC(=O)c3ccc4c(c3)OCO4)CC2=O)cc1` (centres undefined) was tested, and the survival was inactive: 131%.
With `CCOc1ccc(NC(=O)CN(c2ccc(Cl)cc2C)S(=O)(=O)c2ccccc2)cc1` the survival was active: 45%.
`COc1ccc(NC(=O)CN(c2ccc(C)cc2)S(=O)(=O)c2cccc3nonc23)cc1OC` was tested, and the survival was inactive: 64%.
In the case of `CCOc1ccc(OCC)c(NS(=O)(=O)c2c(C(=O)N3CCC(C)CC3)c(C)n(C)c2C)c1`, the survival is reported as active: 8%.
In the case of `Clc1ccc(CSc2ncn[nH]2)cc1`, the survival is reported as inactive: 84%.
For `Cn1cc(C(=O)N2CCN(c3cccc(C(F)(F)F)c3)CC2)c2c3ccccc3n(C)c2c1=O`, the survival was active: 20%.
For `O=C(O)CCn1cnc2onc(-c3cc(F)cc(F)c3)c2c1=O`, the survival was inactive: 104%.
For `CC(=O)Nc1ccc(NC(=O)Cn2nc(C(=O)Nc3ccc(C)cc3)ccc2=O)cc1`, the survival was inactive: 104%.
In the case of `CCOc1ccc(-c2cc3c(=O)n(CC(=O)NCc4ccc(Cl)cc4)ccn3n2)cc1`, the survival is reported as inactive: 94%.
With `COc1ccccc1N1CCN(c2nc(-c3ccc(C)cc3)nc3ccccc23)CC1` the survival was inactive: 83%.
`CCOC(=O)c1c(-c2ccccc2)csc1NC(=O)c1cc(-c2ccc(F)cc2)on1` was tested, and the survival was inactive: 66%.
With `CN(c1ccccc1)S(=O)(=O)c1nnc(NC(=O)c2ccccc2)s1` the survival was active: 32%.
`CC(C)n1cnc(S(=O)(=O)N2CCCC(C(=O)NCc3ccccc3Cl)C2)c1` (centres undefined) was tested, and the survival was inactive: 92%.
With `N#Cc1cc2sc3nc4ccccc4n3c2cc1C#N` the survival was inactive: 90%.
`CCCOc1c(Cl)cc(C(=O)N(Cc2cccc(OC)c2)C2CCS(=O)(=O)C2)cc1Cl` (centres undefined) was tested, and the survival was inactive: 81%.
With `CC(C)NC(=O)C1CCC(Cn2c(=O)c3sccc3n(CC(=O)NCc3ccccc3)c2=O)CC1` (centres undefined) the survival was inactive: 78%.
`COc1ccc(NC(=O)Cn2cnc3c(oc4ccccc43)c2=O)cc1OC` was tested, and the survival was inactive: 79%.
For `CCOc1ccc(NC(=O)c2cnc(N3CCCCC3)c3ccccc23)cc1`, the survival was inactive: 94%.
With `Cc1cccc(C(=O)Nc2ccccc2C#N)c1` the survival was inactive: 95%.
In the case of `COc1cccc(CNC(=O)CSc2c3c(nc4cc(Cl)ccc24)CCCC3)c1`, the survival is reported as inactive: 48%.
For `O=C(CS(=O)CC(=O)Nc1cccc2c1CCCC2)Nc1ccc(F)cc1` (centres undefined), the survival was inactive: 75%.
With `COc1ccc(Cn2c(=O)c3oc4ccccc4c3n(Cc3cccc(C)c3)c2=O)cc1` the survival was inactive: 64%.
With `CCOc1ccccc1NC(=O)Cn1cc(C(=O)c2ccc(Cl)cc2)c(=O)c2ccc(C)nc21` the survival was inactive: 87%.
For `Cc1cccc2c(=O)cc(CSc3ccccc3NC(=O)c3cccc(F)c3)[nH]c12`, the survival was inactive: 92%.
With `COC(=O)Cn1c(=O)c2cccn2c2cccnc21` the survival was inactive: 120%.
With `CCOc1ccc(C(=O)c2c(N)c(-c3nc(-c4ccc5c(c4)OCO5)cs3)c3ccccn23)cc1` the survival was inactive: 108%.
`Cc1ccsc1CN(C(=O)c1oc2cc(Br)ccc2c1C)C1CCS(=O)(=O)C1` (centres undefined) was tested, and the survival was inactive: 64%.
In the case of `O=C(CCn1ccc2cc(S(=O)(=O)N3CCCC3)ccc21)NCc1cccc(Br)c1`, the survival is reported as inactive: 126%.
For `Cc1ccc(C)c(Nc2nn3c(=O)c4ccc(C(=O)NC5CCCCC5)cc4nc3s2)c1`, the survival was inactive: 77%.
`COc1ccc(CCNC(=O)CCCCn2c(=O)c3ccccc3n(Cc3ccc(F)cc3Cl)c2=O)cc1OC` was tested, and the survival was inactive: 82%.
`Cc1ccc(-c2nc3ncccc3o2)cc1NC(=O)c1cccc(OCC(C)C)c1` was tested, and the survival was active: 42%.
`Cn1c(=O)c2c(nc(NCc3ccccc3)n2Cc2ccccc2Cl)n(C)c1=O` was tested, and the survival was inactive: 58%.
With `O=C(C1CC1)N1CCN(c2nc3ccc(F)cc3s2)CC1` the survival was inactive: 117%.
`CN(C)S(=O)(=O)c1ccc2c(c1)nnn2CCNC(=O)Nc1ccc(Br)cc1` was tested, and the survival was inactive: 83%.
With `CCCCOc1ccc(CNC(=O)c2cnc3sc(N4CCOCC4)nn3c2=O)cc1` the survival was inactive: 69%.
`COc1cccc(OCc2nc3ccccc3n2CCOc2ccccc2C)c1` was tested, and the survival was active: 38%.
With `O=C(NCCSc1c(-c2ccc(F)cc2)[nH]c2ccccc12)c1ccc(S(=O)(=O)N2CCOCC2)cc1` the survival was inactive: 86%.
With `COc1cccc(NC(=O)C2CCN(C(=O)N3CC(C)Oc4ccccc43)CC2)c1` (centres undefined) the survival was inactive: 101%.
In the case of `COc1cccc(Cn2c(=O)n(-c3ccccc3C)c(=O)c3c2c2cc(C)ccc2n3C)c1`, the survival is reported as inactive: 80%.
For `COc1ccc(Cl)cc1C(=O)Nc1ccc(-c2nnc3n2CCCCC3)cc1`, the survival was inactive: 72%.
`O=C(NCc1ccccc1Cl)c1ccc2c(O)c(S(=O)(=O)c3ccccc3)c(=O)[nH]c2c1` was tested, and the survival was inactive: 78%.
With `Cc1ccc(CNC(=O)CN2C(=O)C3CCCCN3c3ccc(C(=O)N4CCCC4)cc32)cc1` (centres undefined) the survival was inactive: 76%.
With `COc1cccc(-n2c(SCc3ccccc3C)nc3c([nH]c4ccccc43)c2=O)c1` the survival was inactive: 102%.

Reference: PubChem BioAssay AID463173 (ICCB-Longwood Screening Facility, Harvard Medical School, 2010)
